≈ marks a conversion by molar mass, not a printed value. Like-named read-outs stand apart in the source and are kept apart here.
Columns and labels:
Coxsackie B3 = assay: microbe, parasite or virus in culture; details: Enterovirus B, B3, read-out: Coxsackie B3 EC50
Rhinovirus = assay: microbe, parasite or virus in culture; assay type: cell-based; details: Enterovirus
Coxsackie B1 = assay: organism not typed; details: read-out: Coxsackie B1 EC50
[1] = HRV14, read-out: Rhino HRV14 EC50
[2] = HRV21, read-out: Rhino HRV21 EC50

| SMILES | EC50 (Coxsackie B3) [µg/mL] | EC50 (Rhinovirus; HRV71, read-out: Rhino HRV71 EC50) [µg/mL] | EC50 (Coxsackie B1) [µg/mL] | EC50 (Rhinovirus; [1]) [µg/mL] | EC50 (Rhinovirus; [2]) [µg/mL] |
| --- | --- | --- | --- | --- | --- |
| CC(C)c1ccc2c(c1)OC1(O)c3ccccc3C(=O)C21O (centres unmarked) [Example 10, 4b,9b-Dihydroxy-7-isopropyl-4bH-benzo[d]indeno[1,2-b]furan-10(9bH)-one] | < 0.01 | < 1 | < 0.01 | – | – |
| CC(C)C(=O)NC12C(=O)c3c(N)cccc3C1(O)Oc1cc(C(C)C)ccc12 (centres unmarked) [Example 77, N-(1-Amino-4b-hydroxy-7-isopropyl-10-oxo-4b,10-dihydro-5-oxa-indeno[2,1-a]inden-9b-yl)-isobutylamide] | < 0.01 | – | < 0.01 | < 0.01 | – |
| CCCCCCCC(=O)N[C@@]12C(=O)c3c(N)cccc3[C@]1(O)Oc1cc(C(C)C)ccc12 [Example 93, N-((4bS,9bS)-1-Amino-4b-hydroxy-7-isopropyl-10-oxo-9b,10-dihydro-4bH-indeno[1,2-b]benzofuran-9b-yl)octanamide] | < 0.01 | – | < 0.01 | < 0.01 | – |
| CCC(=O)N[C@@]12C(=O)c3c(N)cccc3[C@]1(OC(=O)CC)Oc1cc(C(C)C)ccc12 [Example 94, (4bR,9bS)-1-Amino-7-isopropyl-10-oxo-9b-propionamido-9b,10-dihydro-4bH-indeno[1,2-b]benzofuran-4b-yl propionate] | < 0.01 | – | < 0.01 | < 0.01 | – |
| CCCC(=O)N[C@@]12C(=O)c3c(N)cccc3[C@]1(OC(=O)CCC)Oc1cc(C(C)C)ccc12 [Example 95, (4bR,9bS)-1-Amino-9b-butyramido-7-isopropyl-10-oxo-9b,10-dihydro-4bH-indeno[1,2-b]benzofuran-4b-yl butyrate] | < 0.01 | – | < 0.01 | < 0.01 | – |
| CCCCC(=O)NC12C(=O)c3c(N)cccc3C1(OC(=O)CCCC)Oc1cc(C(C)C)ccc12 (centres unmarked) [Example 96, 1-Amino-7-isopropyl-10-oxo-9b-pentanamido-9b,10-dihydro-4bH-benzo[d]indeno[1,2-b]furan-4b-yl pentanoate] | < 0.01 | – | < 0.01 | < 0.01 | – |
| CCCCCC(=O)NC12C(=O)c3c(N)cccc3C1(OC(=O)CCCCC)Oc1cc(C(C)C)ccc12 (centres unmarked) [Example 97, 1-amino-9b-hexanamido-7-isopropyl-10-oxo-9b,10-dihydro-4bH-benzo[d]indeno[1,2-b]furan-4b-yl hexanoate] | < 0.01 | – | < 0.01 | < 0.01 | – |
| CCCCCCC(=O)NC12C(=O)c3c(N)cccc3C1(OC(=O)CCCCCC)Oc1cc(C(C)C)ccc12 (centres unmarked) [Example 99, 1-Amino-9b-heptanamido-7-isopropyl-10-oxo-9b,10-dihydro-4bH-benzo[d]indeno[1,2-b]furan-4b-yl heptanoate] | < 0.01 | – | < 0.01 | 0.0101 (≈ 0.0189 µM) | – |
| COC(=O)OC12Oc3cc(C(C)C)ccc3C1(NC(C)=O)C(=O)c1c(N)cccc12 (centres unmarked) [Example 113, 9b-acetamido-1-amino-7-isopropyl-10-oxo-9b,10-dihydro-4bH-indeno[1,2-b]benzofuran-4b-yl methyl carbonate] | < 0.01 | – | < 0.01 | < 0.01 | < 1 |
| CC(C)c1ccc2c(c1)OC1(O)c3cccc(N)c3C(=O)C21NC(=O)C(C)(C)C (centres unmarked) [Example 114, N-(1-Amino-4b-hydroxy-7-isopropyl-10-oxo-9b,10-dihydro-4bH-benzo[d]indeno[1,2-b]furan-9b-yl)pivalamide] | < 0.01 | – | < 0.01 | < 0.01 | – |
| CCCCOC(=O)OC12Oc3cc(C(C)C)ccc3C1(NC(C)=O)C(=O)c1c(N)cccc12 (centres unmarked) [Example 115, 9b-Acetamido-1-amino-7-isopropyl-10-oxo-9b,10-dihydro-4bH-benzo[d]indeno[1,2-b]furan-4b-yl butyl carbonate] | < 0.01 | – | < 0.01 | < 0.01 | – |
| CNC(=O)OC12Oc3cc(C(C)C)ccc3C1(NC(C)=O)C(=O)c1ccccc12 (centres unmarked) [Example 118, 9b-Acetamido-7-isopropyl-10-oxo-9b,10-dihydro-4bH-benzo[d]indeno[1,2-b]furan-4b-yl methylcarbamate] | < 0.01 | – | < 0.01 | – | – |
| CCOC(=O)OC12Oc3cc(C(C)C)ccc3C1(NC(C)=O)C(=O)c1c(N)cccc12 (centres unmarked) [Example 123, 9b-Acetamido-1-amino-7-isopropyl-10-oxo-9b,10-dihydro-4bH-benzo[d]indeno[1,2-b]furan-4b-yl ethyl carbonate] | < 0.01 | – | < 0.01 | < 0.01 | < 1 |
| CC(=O)NC12C(=O)c3c(Br)cccc3C1(O)Oc1cc(C(C)C)ccc12 (centres unmarked) [Example 137, N-(1-Bromo-4b-hydroxy-7-isopropyl-10-oxo-9b,10-dihydro-4bH-indeno[1,2-b]benzofuran-9b-yl)acetamide] | < 0.01 | – | < 0.01 | – | – |
| CC(C)c1cc(C(C)C)c2c(c1)C1(O)C(=O)c3c(N)cccc3C1(O)O2 (centres unmarked) [Example 157, 1-Amino-4b,9b-dihydroxy-6,8-diisopropyl-4bH-benzo[d]indeno[1,2-b]furan-10(9bH)-one] | < 0.01 | – | < 0.01 | – | – |
| CC(C)c1ccc2c(c1)OC1(O)c3cccc(N)c3C(=O)C21NC(=O)Nc1ccc(F)cc1 (centres unmarked) [Example 164, 1-(1-Amino-4b-hydroxy-7-isopropyl-10-oxo-9b,10-dihydro-4bH-indeno[1,2-b]benzofuran-9b-yl)-3-(4-fluorophenyl)urea] | 0.04 (≈ 0.0894 µM) | – | 0.04 (≈ 0.0894 µM) | – | – |
| CC(C)c1ccc2c(c1)OC1(O)c3cccc(N)c3C(=O)C21NS(=O)(=O)C(F)(F)F (centres unmarked) [Example 176, N-(1-Amino-4b-hydroxy-7-isopropyl-10-oxo-9b,10-dihydro-4bH-benzo[d]indeno[1,2-b]furan-9b-yl)-1,1,1-trifluoromethanesulfonamide] | 0.037 (≈ 0.0836 µM) | – | 0.037 (≈ 0.0836 µM) | – | – |
| O=C1c2ccccc2C2(O)Oc3ccccc3C12NS(=O)(=O)C(F)(F)F (centres unmarked) [Example 178, 1,1,1-Trifluoro-N-(4b-hydroxy-10-oxo-9b,10-dihydro-4bH-benzo[d]indeno[1,2-b]furan-9b-yl)methanesulfonamide] | 0.035 (≈ 0.0908 µM) | – | < 0.01 | – | – |
| CC(C)c1ccc2c(c1)OC1(O)c3ccccc3C(=O)C21NC(=O)[C@@H](C)NC(=O)OC(C)(C)C (stereo partly drawn) [Example 184, tert-Butyl(2R)-1-(4b-hydroxy-7-isopropyl-10-oxo-9b,10-dihydro-4bH-benzo[d]indeno[1,2-b]furan-9b-ylamino)-1-oxopropan-2-ylcarbamate] | 0.025 (≈ 0.0536 µM) | – | < 0.01 | – | – |
| CC(C)c1ccc2c(c1)OC1(O)c3cccc(N)c3C(=O)C21NC(=O)c1c(Cl)cc(Cl)cc1Cl (centres unmarked) [Example 192, N-(1-Amino-4b-hydroxy-7-isopropyl-10-oxo-9b,10-dihydro-4bH-indeno[1,2-b]benzofuran-9b-yl)-2,4,6-trichlorobenzamide] | < 0.01 | – | < 0.01 | – | – |
| CCCCc1cn(C23C(=O)c4c(N)cccc4C2(O)Oc2cc(C(C)C)ccc23)nn1 (centres unmarked) [Example 196, 1-amino-9b-(4-butyl-1H-1,2,3-triazol-1-yl)-4b-hydroxy-7-isopropyl-4bH-indeno[1,2-b]benzofuran-10(9bH)-one] | < 0.01 | – | < 0.01 | – | – |
| Cc1ccc(C(=O)NC23C(=O)c4c(N)cccc4C2(O)Oc2cc(C(C)C)ccc23)s1 (centres unmarked) [Example 216, N-(1-Amino-4b-hydroxy-7-isopropyl-10-oxo-9b,10-dihydro-4bH-indeno[1,2-b]benzofuran-9b-yl)-5-methylthiophene-2-carboxamide] | 0.037 (≈ 0.0852 µM) | – | 0.036 (≈ 0.0829 µM) | – | – |
| CC(C)c1ccc2c(c1)OC1(O)c3ccccc3C(=O)C21NC(=O)c1ccc([N+](=O)[O-])s1 (centres unmarked) [Example 223, N-(4b-hydroxy-7-isopropyl-10-oxo-9b,10-dihydro-4bH-benzo[d]indeno[1,2-b]furan-9b-yl)-5-nitrothiophene-2-carboxamide] | < 0.01 | – | < 0.01 | – | – |
| CC(C)c1ccc2c(c1)OC1(O)c3ccccc3C(=O)C21NC(=O)c1cc(=O)[nH]c(=O)[nH]1 (centres unmarked) [Example 224, N-(4b-Hydroxy-7-isopropyl-10-oxo-9b,10-dihydro-4bH-benzo[d]indeno[1,2-b]furan-9b-yl)-2,6-dioxo-1,2,3,6-tetrahydropyrimidine-4-carboxamide] | 0.013 (≈ 0.03 µM) | – | < 0.01 | – | – |
| CC(C)c1ccc2c(c1)OC1(O)c3ccccc3C(=O)C21NC(=O)c1cc2ccccc2oc1=O (centres unmarked) [Example 225, N-(4b-hydroxy-7-isopropyl-10-oxo-9b,10-dihydro-4bH-benzo[d]indeno[1,2-b]furan-9b-yl)-2-oxo-2H-chromene-3-carboxamide] | < 0.01 | – | < 0.01 | – | – |
| CC(C)c1ccc2c(c1)OC1(O)c3ccccc3C(=O)C21NC(=O)c1ccc(=O)oc1 (centres unmarked) [Example 226, N-(4b-Hydroxy-7-isopropyl-10-oxo-9b,10-dihydro-4bH-benzo[d]indeno[1,2-b]furan-9b-yl)-2-oxo-2H-pyrane-5-carboxamide] | < 0.01 | – | < 0.01 | – | – |
| CC(C)c1ccc2c(c1)OC1(O)c3ccccc3C(=O)C21NC(=O)c1nc2ccccc2[nH]1 (centres unmarked) [Example 227, N-(4b-hydroxy-7-isopropyl-10-oxo-9b,10-dihydro-4bH-benzo[d]indeno[1,2-b]furan-9b-yl)-1H-benzo[d]imidazole-2-carboxamide] | < 0.01 | – | < 0.01 | – | – |
| CC(C)c1ccc2c(c1)OC1(O)c3cccc(N)c3C(=O)C21NC(=O)c1ccc(N)o1 (centres unmarked) [Example 232, 5-amino-N-(1-amino-4b-hydroxy-7-isopropyl-10-oxo-9b,10-dihydro-4bH-indeno[1,2-b]benzofuran-9b-yl)furane-2-carboxamide] | 0.024 (≈ 0.0572 µM) | – | 0.012 (≈ 0.0286 µM) | – | – |
| CC(C)c1ccc2c(c1)OC1(O)c3ccccc3C(=O)C21NC(=O)c1cnnc2ccccc12 (centres unmarked) [Example 239, N-(4b-hydroxy-7-isopropyl-10-oxo-9b,10-dihydro-4bH-benzo[d]indeno[1,2-b]furan-9b-yl)cinnoline-4-carboxamide] | < 0.01 | – | < 0.01 | – | – |
| CC(C)c1ccc2c(c1)OC1(O)c3cccc(N)c3C(=O)C21NC(=O)c1c2ccccc2nc2ccccc12 (centres unmarked) [Example 241, N-(1-Amino-4b-hydroxy-7-isopropyl-10-oxo-9b,10-dihydro-4bH-benzo[d]indeno[1,2-b]furan-9b-yl)acridine-9-carboxamide] | < 0.01 | – | < 0.01 | – | – |
